# According to PubChem BioAssay AID488969 (Vanderbilt High Throughput Screening Facility, 2010):
# Whole data set: some 110,000 compounds, median “z-score” near -0.1, cut for the highest 2% near 2. The list shows a part of the results. Calls of active or inactive are those of the source.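 The calls were made as follows: active = z-score in the third read window above 3 or below -3; inactive = the rest.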
# Target: Metabotropic glutamate receptor 8 (Rattus norvegicus) (UniProt P70579)
# Assay: mGluR8 Gi/Go-coupled signaling modulation – cell-based, rat, thallium flux, HTS, primary screen (AID 488969)
# Conditions: HEK293 rat mGluR8, GIRK (G protein-gated inwardly rectifying potassium channel) thallium flux, FluoZin2; at 10 µM; stronger effect = higher value; submaximal glutamate (EC20) added with thallium
# UniProt P70579, sequence (P70579 whole entry, looked up): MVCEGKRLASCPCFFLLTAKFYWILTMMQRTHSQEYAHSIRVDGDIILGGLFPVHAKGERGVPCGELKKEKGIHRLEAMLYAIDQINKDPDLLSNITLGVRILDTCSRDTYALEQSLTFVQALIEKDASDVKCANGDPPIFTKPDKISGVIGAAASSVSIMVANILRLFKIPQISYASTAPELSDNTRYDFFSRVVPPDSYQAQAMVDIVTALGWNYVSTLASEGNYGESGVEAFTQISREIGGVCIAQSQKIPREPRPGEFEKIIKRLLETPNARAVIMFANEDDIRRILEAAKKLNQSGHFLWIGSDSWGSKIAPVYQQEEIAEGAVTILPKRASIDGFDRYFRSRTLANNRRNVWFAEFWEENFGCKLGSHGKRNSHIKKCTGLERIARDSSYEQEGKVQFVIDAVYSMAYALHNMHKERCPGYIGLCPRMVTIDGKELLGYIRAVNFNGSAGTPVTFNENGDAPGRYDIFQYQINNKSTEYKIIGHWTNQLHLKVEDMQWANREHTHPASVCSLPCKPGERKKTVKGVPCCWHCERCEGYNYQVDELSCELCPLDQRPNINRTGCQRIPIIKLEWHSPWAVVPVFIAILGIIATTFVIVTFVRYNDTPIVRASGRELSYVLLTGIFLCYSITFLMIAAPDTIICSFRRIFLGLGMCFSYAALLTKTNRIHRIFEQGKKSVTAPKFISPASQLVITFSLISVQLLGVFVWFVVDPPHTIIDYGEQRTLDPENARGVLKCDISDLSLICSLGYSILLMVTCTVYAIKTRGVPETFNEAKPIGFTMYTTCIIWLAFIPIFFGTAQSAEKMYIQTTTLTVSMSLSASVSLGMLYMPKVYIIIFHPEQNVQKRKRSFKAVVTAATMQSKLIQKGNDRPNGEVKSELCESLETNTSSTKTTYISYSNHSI
row,Compound,z-score
1,C/C(=N/NC(=O)CN1CCN(S(=O)(=O)c2ccc(Br)cc2)CC1)c1cccnc1,-0.0379
2,Cc1cc(C2=NNC(=NC3CC3)SC2)c(C)n1Cc1ccco1,1.4
3,CCOC(=O)c1c(C)oc2ccc(OCC(=O)N(CC)CC)cc12,0.0771
4,CC(C)c1ccccc1NC(=O)CCCC(=O)O,-0.205
5,Cc1nn2c3c(cnc2c1-c1ccccc1)C(=O)CC(c1ccccc1)C3 (stereo not given),0.106
6,Cc1cccc(NC(=O)Nc2ccc(Oc3c(F)c(F)c(F)c(F)c3F)cc2)c1,0.606
7,CS(=O)(=O)N(CC(=O)Nc1ccccc1Sc1ccccc1)c1cccc(Br)c1,0.0382
8,O=C1NC2(CCCCC2)N=C1c1ccc(Br)cc1,0.164
9,Cn1cc(/C=C2/SC(=O)N(c3ccccc3)C2=O)c2ccccc21,-0.08
10,O=S1(=O)NC(=NC2CCCCCC2)c2ccccc21,-0.0713
11,CC1=NN(c2ccc(Cl)cc2)C(=O)C1C(c1cccc(O)c1)c1c(C)[nH]n(-c2ccc(Cl)cc2)c1=O (stereo not given),-0.21
12,Cc1ccc(S(=O)(=O)/C(C#N)=C/c2c(N3CCC(C(N)=O)CC3)nc3c(C)cccn3c2=O)cc1,0.139
13,COc1ccc(/C=N\NS(=O)(=O)c2ccc(C)cc2)cc1COc1ccccc1[N+](=O)[O-],1.32
14,O=C(/C=C/c1ccccc1)N1CCN(CC(O)COc2ccccc2)CC1 (stereo not given),-0.361
15,COc1ccc(C(=O)Nc2ccccc2C(N)=O)cc1,0.00668
16,OC1CN=C2Sc3ccccc3N2C1 (stereo not given),-0.0741
17,O=C(Nc1ncc(Cc2ccc(Cl)cc2Cl)s1)c1ccc([N+](=O)[O-])cc1,-0.384
18,O=C(COC(=O)c1cc(=O)[nH]c2ccccc12)NC(=O)NC1CCCCC1,-0.536
19,CCCCC(CC)CNC(=O)C1CCCN(S(=O)(=O)c2cnc[nH]2)C1 (stereo not given),-0.124
20,Cc1nc(NC(=O)C2CC2)sc1C(=O)N1CCCCC1,1.18
21,Cc1cccc(CSC2=NCCN2C(=O)c2ccco2)c1,-0.824
22,FC(F)(F)c1cccc(NC(=S)Nc2ccc(Cl)cc2Cl)c1,1.29
23,Cc1ccc2c(C)nc(Nc3nc(CSc4nnc(C)s4)cc(=O)[nH]3)nc2c1,-0.289
24,O=C(Nc1ccccc1N1CCN(C(=O)c2ccccc2)CC1)c1ccc2c(c1)OCO2,1.55
25,CCSc1nc2sc3c(c2c2nnc(SCC(=O)NCc4ccco4)n12)CCCC3,-1.36
26,COc1ccc(C(C[N+](=O)[O-])c2c(-c3ccccc3)cc3ccccn23)cc1OC (stereo not given),0.481
27,Cc1occc1-c1nnc(SCC(=O)NCC2CCCO2)n1C (stereo not given),-0.244

row,Compound,z-score
1,CC(C)C(=O)NC(C)C(c1cccs1)N1CCN(c2ccccc2)CC1 (stereo not given),0.0497
2,CC1CC1c1ccc(/C=C(\C#N)C(=O)Nc2cccc(Cl)c2Cl)o1 (stereo not given),-0.485
3,Cc1cc(C)c2c(n1)sc1c(=O)[nH]c(SCc3ccccc3)nc12,-0.591
4,O=C(Oc1ccc([N+](=O)[O-])cc1)c1cncc(Br)c1,-0.639
5,CCCCN(CC)S(=O)(=O)c1ccc2c(c1)CCCN2C(C)=O,-0.0517
6,O=C(Nn1cnnc1)c1cc2cc(Br)ccc2oc1=O,active: 4.37
7,COCCNC(=O)c1c(N)n(-c2ccccc2)c2nc3ccccc3nc12,-0.695
8,CN1CCN(CC(O)COCCOc2ccc(Br)cc2)CC1 (stereo not given),-0.138
9,CCOC(=O)C1=C(C)NC(SCc2cc(=O)[nH][nH]2)=C(C#N)C1c1cccs1 (stereo not given),-0.0437
10,CCOC(=O)C1CCN(C(=O)c2ccccc2NS(=O)(=O)c2cc(C)ccc2C)CC1,0.196
11,CCOC(=O)CSC1=C(C#N)C(c2ccco2)C(C(=O)Nc2cccc(C(F)(F)F)c2)=C(C)N1 (stereo not given),-0.526
12,COc1ccc(CNc2nc(S(=O)(=O)c3ccccc3)c(Cl)s2)cc1OC,-0.056
13,CCN(CC)CCN1C(=O)C(=O)/C(=C(/O)c2c(C)[nH]c(C(=O)OC)c2C)C1c1ccccc1OC (stereo not given),0.463
14,Cc1ccc(NC(=S)N2CCN(Cc3ccc4c(c3)OCO4)CC2)c(C)c1,-0.407
15,CN1CCC(=NNC(=O)c2ccc(N(Cc3ccc(Cl)cc3)S(C)(=O)=O)cc2)CC1,-0.0884
16,COc1ccc2[nH]c(=O)c(CN(CCO)C(=O)c3ccccc3F)cc2c1,-0.951
17,Cn1c(CCNC(=O)c2ccccc2)nc2cc(NC(=O)C3CCCCC3)ccc21,0.756
18,CC(=O)C(=Nc1ccc(Cl)cc1Cl)NNc1cccc(Cl)c1,-0.405
19,O=C(/C=C/c1cccs1)c1cc(Cl)ccc1OC(=O)N1CCOCC1,-0.448
20,S=C(NCCSCc1ccc(Cl)c(Cl)c1)Nc1ccccc1,-0.092
21,Cn1c(C2CCCN2C(=O)OC(C)(C)C)n[nH]c1=S (stereo not given),-0.385
22,COc1cc2[nH]c3c(=O)n(CCN4CCCCC4)cnc3c2cc1OC,0.755
23,O=C(NC1CCCCC1)N(Cc1nc2ccccc2c(=O)[nH]1)C1CCCC1,0.129
24,Cc1cccc(C(=O)N2CCC(Cc3ccccc3)CC2)c1[N+](=O)[O-],active: 8.23
25,O=C1C(Cc2ccc(O)cc2)NC(=S)N1c1ccccc1 (stereo not given),-0.375
26,Cc1ccc(NC(=O)c2cnn(-c3ccccc3)c2NC(=O)c2ccco2)cc1C,-0.171
27,CC(C)(C)C(=O)Nc1ccccc1N1CCN(C(=O)c2ccc(Cl)cc2)CC1,-0.414

row,Compound,z-score
1,COC(=O)c1ccsc1NC(=O)CN1CCN(Cc2ccc3c(c2)OCO3)CC1,-0.145
2,COc1ccccc1Cc1nnnn1CC(=O)O,0.0206
3,COC(=O)c1ccc(Oc2c(C(F)(F)F)oc3c(CN4CCN(C)CC4)c(O)ccc3c2=O)cc1,-0.0871
4,CCC(=O)N1CCN(c2cc(N3CCN(C)CC3)c(F)cc2[N+](=O)[O-])CC1,0.0648
5,COc1ccc(NC(=O)CC2SC(=NCC3CCCO3)NC2=O)cc1 (stereo not given),0.33
6,CN1C/C(=C/c2cccnc2)C(=O)/C(=C/c2cccnc2)C1,0.0351
7,Cc1cc(C)c2c(N)c(C(=O)NCC3CCCCC3)sc2n1,-0.117
8,CC(C)CCNC(=O)c1ccc(C2SCC(=O)N2Cc2ccco2)cc1 (stereo not given),-0.513
9,O=C(/C(C=Nc1ccc(Br)cc1)=C(/O)c1ccco1)C(F)(F)F,-0.324
10,O=C(CCCn1c(SCC(=O)c2ccc(O)c(O)c2)nc2ccccc2c1=O)NCC1CCCO1 (stereo not given),-0.557
11,Cc1nn(Cc2ccccc2Cl)c(C)c1NC(=O)CCCn1nc([N+](=O)[O-])c(Cl)c1C,-0.339
12,CCCOc1cccc(C(=O)Nc2cccnc2)c1,0.379
13,CC(c1ccco1)N(C(=O)Nc1ccccc1)C1CCCCC1 (stereo not given),-0.242
14,Cc1cccc(OCC(=O)NNC(=O)CSc2ncc(C#N)c(N)n2)c1,0.132
15,O=C(Cn1cc([N+](=O)[O-])cn1)Nc1nc2ccccc2s1,0.0332
16,O=C(CSC1CC(=O)N(CCc2ccccc2)C1=O)Nc1ccc(Cl)cc1 (stereo not given),-0.0174
17,COc1ccc(CCn2c(Br)nc3c2c(=O)[nH]c(=O)n3C)cc1,-0.0329
18,Cc1onc(-c2ccccc2)c1C(=O)NCC1CCN(C(=O)c2c(-c3ccccc3)noc2C)CC1,-0.402
19,Cc1ccc(OCC(=O)Nc2ccc(S(=O)(=O)Nc3onc(C)c3C)cc2)cc1,0.0571
20,Cc1cccc(NC(=O)CSc2nnc(-c3n[nH]c4ccccc34)o2)c1,0.53
21,O=C(Cn1cc(C(=S)N2CCOCC2)c2ccccc21)N1CCOCC1,-0.257
22,Cc1ccc(-c2n[nH]c(=S)n2Cc2ccccc2)cc1,-0.277
23,COc1ccc(C(=O)Nc2ccccc2C(=O)NC(C)C)cc1OC,-0.708
24,CCOc1ccccc1-n1c(CNc2ccc(F)cc2)nnc1SCC(=O)NCc1ccco1,-0.53
25,Cc1ccc(N2CN=c3s/c(=C\c4ccccn4)c(=O)n3C2)cc1,0.203
26,CN(c1ccccc1C(=O)Nc1ccc2c(c1)OCCO2)S(C)(=O)=O,0.0123
27,O=C(CCNC(=O)c1ccccc1Cl)Nc1ccc(Br)c(C(F)(F)F)c1,-0.164

row,Compound,z-score
1,COc1ccc2c(C)c(Cl)c(=O)oc2c1,-0.379
2,CCOc1nc(NCc2ccco2)nc(Nc2ccccc2F)n1,-0.124
3,COc1ccc(NC(=O)Nc2ccc(OC)cc2)cc1,-0.25
4,O=C(Nc1nc(N2C(=O)c3ccccc3C2=O)n(-c2ccccc2)n1)c1ccc(F)cc1,-0.214
5,COc1ccc(S(=O)(=O)N2CCC(C(=O)c3ccc4c(c3)OCCO4)CC2)cc1,-0.313
6,CS(=O)(=O)NCCSc1nnnn1-c1ccccc1,0.484
7,O=C(NC(=S)Nc1cccc2cccnc12)c1ccccc1,0.356
8,Oc1ccccc1-c1nc(N2CCCC2)c2ccccc2n1,0.251
9,Cc1nonc1NC(=O)OCCN1CCOC1=O,-0.041
10,O=C1CN(C(=O)COC(=O)c2ccccc2NC(=O)c2ccco2)c2ccccc2N1,-1.64
11,Cc1cc(C)c(S(=O)(=O)N2CCN(c3ccc([N+](=O)[O-])c(NCc4ccco4)c3)CC2)c(C)c1,-0.0158
12,Nc1ncnc2nc(Sc3ccc(Cl)cc3)[nH]c12,0.0177
13,Cc1c(C(=O)Nc2ccc(F)c(F)c2)oc2ccc(S(=O)(=O)N3CCCCC3)cc12,-0.14
14,Cc1cc(C)c2c(c1)-c1cc(C)nn1C(c1ccc3c(c1)OCO3)N2 (stereo not given),-0.0277
15,CCOC(=O)C(C)N1N=C(/C=C/c2ccc(C)cc2)CCC1=O (stereo not given),-0.289
16,CCCCn1c(=O)n(CC(=O)NCc2ccc(C)cc2)c(=O)c2c1nc(CO)n2CCC,-0.123
17,NC(=O)c1ccc(NC(=O)CSC2=Nc3ccccc3C3CC=NN23)cc1 (stereo not given),0.461
18,CC(C)(Oc1ccc(Cl)cc1)C(=O)N/N=C/c1cn[nH]c1-c1ccccc1,-0.22
19,Cn1c(SCC(=O)NCc2ccc3c(c2)OCO3)nnc1-c1c[nH]c2ccccc12,-0.821
20,CCC(Sc1nc(C)cc(C)n1)C(=O)O (stereo not given),0.498
21,CC1(C)NC(=O)N(CCOCCOc2ccccc2)C1=O,-0.067
22,CC(C)[C@H](Nc1ccc(S(=O)(=O)N2CCOCC2)cc1[N+](=O)[O-])C(=O)OCC(=O)N(C(C)C)C(C)C,-0.351
23,CCOC(=O)c1c(C)[nH]c(C)c1C(=O)Cn1nnc(-c2ccccc2C)n1,-2.06
24,CCOC(=O)N1CCN(C(=O)CN(c2ccc(OCC)cc2)S(C)(=O)=O)CC1,-0.173
